The whole screen tested about 310,000 compounds, of which about 14,000 (4.5%) showed an effect of 50% or more. Effects have a minus sign here. The list shows a part of the results.
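Further: peak tail current of the secondary pulse compared with the same well before compound.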

human ether-à-go-go-related gene (hERG) potassium channel, sequence (Q12809 whole entry, looked up): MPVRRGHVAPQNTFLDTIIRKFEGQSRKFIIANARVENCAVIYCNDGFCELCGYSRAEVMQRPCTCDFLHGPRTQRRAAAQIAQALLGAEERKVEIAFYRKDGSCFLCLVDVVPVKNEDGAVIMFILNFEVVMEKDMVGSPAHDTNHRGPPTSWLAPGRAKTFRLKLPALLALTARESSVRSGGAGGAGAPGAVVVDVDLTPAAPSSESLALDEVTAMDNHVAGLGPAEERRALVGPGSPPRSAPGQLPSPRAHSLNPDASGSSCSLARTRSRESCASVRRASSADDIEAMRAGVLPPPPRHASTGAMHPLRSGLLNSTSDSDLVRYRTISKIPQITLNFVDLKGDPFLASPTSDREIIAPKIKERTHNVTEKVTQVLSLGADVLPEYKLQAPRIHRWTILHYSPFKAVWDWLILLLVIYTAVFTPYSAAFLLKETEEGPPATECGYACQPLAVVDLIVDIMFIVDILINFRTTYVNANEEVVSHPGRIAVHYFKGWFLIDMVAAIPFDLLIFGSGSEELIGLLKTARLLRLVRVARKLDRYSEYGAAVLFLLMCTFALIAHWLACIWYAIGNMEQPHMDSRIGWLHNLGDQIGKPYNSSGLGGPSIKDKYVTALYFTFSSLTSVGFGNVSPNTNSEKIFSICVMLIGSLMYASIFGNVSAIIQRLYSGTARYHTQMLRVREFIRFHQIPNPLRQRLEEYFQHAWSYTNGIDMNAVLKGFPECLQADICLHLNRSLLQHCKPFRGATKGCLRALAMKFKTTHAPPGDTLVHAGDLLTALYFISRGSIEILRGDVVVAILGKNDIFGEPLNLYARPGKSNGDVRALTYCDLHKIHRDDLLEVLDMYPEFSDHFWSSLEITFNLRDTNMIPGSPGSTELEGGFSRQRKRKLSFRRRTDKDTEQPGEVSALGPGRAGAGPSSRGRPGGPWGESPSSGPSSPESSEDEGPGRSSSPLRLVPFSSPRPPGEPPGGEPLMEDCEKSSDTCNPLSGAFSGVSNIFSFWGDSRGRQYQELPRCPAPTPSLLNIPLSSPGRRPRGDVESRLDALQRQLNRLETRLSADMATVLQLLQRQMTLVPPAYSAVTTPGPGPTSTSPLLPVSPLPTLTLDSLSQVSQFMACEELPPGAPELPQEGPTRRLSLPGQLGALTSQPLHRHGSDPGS

This experiment has as its target human ether-à-go-go-related gene (hERG) potassium channel (human, UniProt Q12809). Kind of experiment: primary screen, population patch clamp on CHO cells stably expressing hERG.
With `CCC(C)[C@H](NC(=O)NCc1cccs1)C(=O)OC` (stereo partly shown), the “hERG current change (%, negative = inhibition) at 10uM” value was 6.41%.

Turning to `COc1ccc(C)cc1NC(=O)C1CC1c1ccccc1` (stereo not shown), the “hERG current change (%, negative = inhibition) at 10uM” value is recorded as -7.31%. Turning to `Cc1cc(-c2ccccc2)nc2cc(C(=O)OC(C)C)nn12`, the “hERG current change (%, negative = inhibition) at 10uM” value is reported as -11.6%. In the case of `O=C(CCSc1nc(-c2ccco2)cc(C(F)(F)F)n1)N1CCCc2ccccc21` it was -9.74%. Next, `O=C(O)C(=O)O.c1cc2nc(C34CC5CC(CC(C5)C3)C4)[nH]c2cn1`: -4.47%. Next, `CS(=O)(=O)Nc1ccc(C(=O)NCc2ccco2)cc1`: 0.221%; `C/C(=N/NC(=O)CN1CCN(S(=O)(=O)c2ccc(Br)cc2)CC1)c1ccco1`: -68.9%; `COc1ccc(N(C(=O)c2ccncc2)S(=O)(=O)c2ccc(F)cc2)cc1`: 16%.

As to `N#Cc1c(-c2ccccc2)cc(-c2cccs2)nc1SCC(=O)O`, the “hERG current change (%, negative = inhibition) at 10uM” value is 5.56%.

As for `CC(=O)Nc1cc2nc(C)n(Cc3ccccc3)c2nc1C`, the “hERG current change (%, negative = inhibition) at 10uM” value is reported as 6.5%. Next, `CCC(c1ccccc1)c1nc(-c2ccccn2)no1` (stereo not shown): -6.93%; `CN(CC(=O)Nc1ccc(F)cc1)C(=O)Cn1nnc(-c2ccccc2)n1`: -0.128%; `Cc1ccc(F)cc1N=Cc1c(O)c2ccccc2oc1=O`: 16.3%.

Take `CCOC(=O)NC(=O)CSc1ccc2ccccc2n1`: the “hERG current change (%, negative = inhibition) at 10uM” value came to 14%. Next, `Cc1ccc(NC(=S)C2=C(O)c3ccccc3N(C)S2(=O)=O)cc1`: 14.5%. In the case of `CCCC1=NN(c2ccc([N+](=O)[O-])cc2)C(=O)/C1=C\N(C)C` it was -7.95%; in that of `O=C(Cn1c(=O)n(Cc2ccco2)c(=O)c2c3c(sc21)CCCCC3)Nc1ccccc1`, 6.54%; in that of `CC(C)(C)c1ccc(C(=O)NC(=S)N2CCCCCC2)cc1`, 2.36%. Next, `S=c1[nH]nc(-c2cc(-c3ccccc3)n[nH]2)n1/N=C/c1cccc(Cl)c1`: 29.2%; `Cc1ccc2c(c1)N(Cc1cccc(C#N)c1)C=NS2(=O)=O`: 9.38%. As for `O=C(Cc1cccs1)Nc1cccc(C(=O)Nc2ccco2)c1`, the “hERG current change (%, negative = inhibition) at 10uM” value is listed as -37.9%. Next, `COc1ccccc1NC(=S)NNC(=O)c1ccccc1Br`: -70.9%; `COC(=O)c1ccc[n+](CC(=O)c2ccc(Br)cc2)c1.[Cl-]`: -30.5%; `CCOC(=O)c1c(NC(=O)C2CCN(S(=O)(=O)c3cccs3)CC2)sc(C)c1C`: 4.56%. Consider `Cc1cc(N)n(-c2ccc([N+](=O)[O-])cc2)n1`, for which the “hERG current change (%, negative = inhibition) at 10uM” value turned out to be 6.69%. For the compound `CC1(CC(=O)N/N=C/c2ccc(-c3cccc(C(F)(F)F)c3)o2)OCCO1`, the “hERG current change (%, negative = inhibition) at 10uM” value is listed as -32.1%. Next, `Cc1cc(C(=O)NNc2ccc(C(C)C)cc2)n(C(C)(C)C)n1`: 13.6%. In the case of `CCC(C)NCCCOc1ccc(Cl)cc1C(C)(C)C.O=C(O)C(=O)O` (stereo not shown) it was -8.48%; in that of `COc1ccc(NC(=O)Cc2ccc(Cl)cc2)cc1NC(=O)c1ccco1`, -20.7%. In the case of `N#Cc1c(NC(=O)c2cccc(S(=O)(=O)Nc3ccc(C(=O)O)cc3)c2)sc2c1CCCC2` it was -3.45%; in that of `CCc1ccc(/C=N/N2CCN(c3ccccn3)CC2)cc1`, -12.3%. On to `CC(=O)Nc1cccc(OCCCNS(=O)(=O)c2ccc(C#N)cc2)c1`, for which the “hERG current change (%, negative = inhibition) at 10uM” value is -6.74%.

Consider `COc1ccc(CC(=O)NCc2ccc(F)cc2)cc1S(=O)(=O)N1CCOCC1`, for which the “hERG current change (%, negative = inhibition) at 10uM” value is -8.29%. Take `COc1ccc(Br)cc1S(=O)(=O)NCc1ccccn1`: the “hERG current change (%, negative = inhibition) at 10uM” value came to 0.508%. For the compound `COc1ccc(S(=O)(=O)N2CC3C4C=CC(C4)C3C2)cc1` (stereo not shown), the “hERG current change (%, negative = inhibition) at 10uM” value was -7.85%. In the case of `CSc1ncc2c(=O)[nH]c(-c3ccccc3)nc2n1` it was 11.6%. Next, `CCOC(=O)CN(C(=O)COc1nc(-c2ccccc2)cc(C)c1C#N)c1ccc(C)cc1`: 2.64%; `CC(CSc1nnnn1-c1ccccc1)Cn1c(N2CCCC2)nc2c1c(=O)[nH]c(=O)n2C` (stereo not shown): -45.1%; `O=C(O)CCSc1ccccn1`: 29.3%. Next, `Cc1ccc(NC(=O)C2(S(=O)(=O)c3ccc(C)cc3)CC2)cc1`: 1.48%.

Regarding `Cc1csc(NC(=O)CSc2ccc([N+](=O)[O-])cn2)n1`, the “hERG current change (%, negative = inhibition) at 10uM” value is listed as -16.1%. In the case of `Cc1cc(NC(=O)c2ccc(NC(=O)C(C)Oc3ccccc3)cc2)no1` (stereo not shown) it was 17.8%; in that of `CC(C)(C)Cc1cc(N)on1`, 2.27%; in that of `O=C(Oc1ccc(Br)cc1C(=S)N1CCOCC1)c1ccccc1`, 6.19%.

As to `CCC(=O)Nc1cc(C(=O)N2CCC3(CC2)OCCO3)ccc1S(=O)(=O)c1ccc(C)cc1`, the “hERG current change (%, negative = inhibition) at 10uM” value is -3.74%. In the case of `Cc1sc2nc(SCC(=O)N3CCCC3)[nH]c(=O)c2c1C`, the “hERG current change (%, negative = inhibition) at 10uM” value is -12.3%. In the case of `Cc1noc(C)c1S(=O)(=O)N1CCC(C(=O)NCCN2CCC(C)CC2)CC1` it was -2.96%; in that of `Cc1cccc(C)c1NC(=O)CN(C)CC(=O)Nc1ccc(F)c(Cl)c1`, -9.4%; in that of `CCCCC(=O)Nc1ccc(C(=O)Nc2nnc(COC)s2)cc1`, -0.609%.

For `COc1ccc(CNC(=O)CSc2cccc3cccnc23)cc1`, the “hERG current change (%, negative = inhibition) at 10uM” value turned out to be 4.1%.

As for `C[C@H](OC(=O)NCc1ccc(C(F)(F)F)cc1)[C@@H]1O[C@@]2(C)CCC[C@@H]1O2`, the “hERG current change (%, negative = inhibition) at 10uM” value is 21.2%. In the case of `COc1ccc(C2CC(c3cccc(Cl)c3)n3nc(N)nc3N2)cc1` (stereo not shown) it was -27.2%; in that of `COc1ccc(CN/C(C)=C(/C#N)C(N)=O)cc1OC`, -10.1%.

For the compound `Cc1cc(SCC(=O)N/N=C/c2ccc(O)c(O)c2)c(C)cc1Br`, the “hERG current change (%, negative = inhibition) at 10uM” value came to 4.97%. With `CN(C)S(=O)(=O)c1ccc(NC(=O)COC(=O)C2COc3ccccc3O2)cc1` (stereo not shown), the “hERG current change (%, negative = inhibition) at 10uM” value was -2.59%.

As for `Cc1cc(C)c(S(=O)(=O)NCc2ccccn2)c(C)c1`, the “hERG current change (%, negative = inhibition) at 10uM” value is reported as 3.13%. `NC(=O)CN1C(=O)C(=O)N(Cc2ccccc2)C1=O`: the “hERG current change (%, negative = inhibition) at 10uM” value was found to be 13%. In the case of `N#CC1=C(N)C2=C(N3CCCCC3)CCCC2C1(C#N)C#N` (stereo not shown) it was 6.05%; in that of `COc1ccc(CCC(=O)NCc2cn3ccsc3n2)cc1`, 13%. In the case of `COc1cc(C(=O)NCCCN2CCCC2=O)cc(Br)c1OCc1ccccc1` it was -50.7%; in that of `COc1ccc(N2CCN(S(=O)(=O)c3ccc4c(c3)CC(C)N4C(=O)C3CC3)CC2)cc1` (stereo not shown), 18.5%. Next, `CCN(CC)S(=O)(=O)c1ccc(S(=O)(=O)Nc2ccc(C(=O)N3CCCC3)cc2)cc1`: -8.63%. With `COc1ccccc1Nc1nc(N)nc(CN2CCC(C)CC2)n1`, the “hERG current change (%, negative = inhibition) at 10uM” value is on record as -67.5%. In the case of `Cc1ccc(CN(Cc2cc3cccc(C)c3[nH]c2=O)C(=O)N(C)C)cc1` it was -9.44%. In the case of `Cc1ccc(CCN2C(=O)c3ccccc3C2C(=O)NCc2cccnc2)cc1` (stereo not shown) it was -6.79%; in that of `Cc1cccc(C)c1NC(=O)CN(C)C(=O)c1cccc(NS(=O)(=O)c2ccccc2)c1`, -4.78%; in that of `CC(CCC(=O)O)C1CCC2C3CCC4C[C@H](O)CCC4(C)C3CC(=O)C12C` (stereo partly shown), 17.7%. Next, `CCCc1cc(=O)oc2cc(OCC(=O)NCCc3c[nH]c4ccccc34)ccc12`: -14.4%; `CCOc1ccccc1-n1c(SCC(=O)NC(C)(C)C)nnc1-c1ccoc1C`: 1.75%; `CCOc1ccc(C(=O)COC(=O)CN2C(=O)NC3(CCCCC3C)C2=O)cc1` (stereo not shown): -42.7%. As to `O=C(CC1(c2ccc(Cl)cc2)C2CC3CC(C2)CC1C3)NCCO` (stereo not shown), the “hERG current change (%, negative = inhibition) at 10uM” value was -7.17%. In the case of `Nc1c(-c2ccc(Cl)cc2)cnc2c(-c3ccccc3)cnn12` it was 29.1%; in that of `O=C(Cn1cc([N+](=O)[O-])cn1)NCc1ccco1`, -13.3%; in that of `O=C(NCc1ccccc1F)C1CCCN(S(=O)(=O)c2ccc(-n3cnnn3)cc2)C1` (stereo not shown), -1.94%. Next, `COc1cc(C(=O)Nc2ccc3c(c2)Cc2cc(NC(=O)c4cc(OC)c(OC)c(OC)c4)ccc2-3)cc(OC)c1OC`: 7.81%.

For the compound `CCOc1ccc2nc(-c3ccccc3)nc(SCC(=O)OC)c2c1`, the “hERG current change (%, negative = inhibition) at 10uM” value is on record as 19.2%. In the case of `CCOC(=O)N1CCN(S(=O)(=O)c2ccc(F)cc2)CC1` it was 19.8%; in that of `CCCCn1c(CN2CCN(CCO)CC2)nc2ccccc21`, -66%; in that of `CCNc1nnc(-c2ccc(C)cc2)o1`, 1.33%. Take `O=C(Nc1ccc2c(c1)CCC2)c1cccc(S(=O)(=O)N2CCN(c3ccccc3)CC2)c1`: the “hERG current change (%, negative = inhibition) at 10uM” value was -8.42%. In the case of `Cc1cc(C)cc(OCC(O)CN2CCN(Cc3ccc4c(c3)OCO4)CC2)c1.Cl` (stereo not shown) it was -76%; in that of `O=C(Nc1cc(S(=O)(=O)Nc2ccc(Cl)cc2)ccc1N1CCCCC1)c1ccc(F)cc1Cl`, -2.91%; in that of `CCN(CC)CCn1c(=N)n(CC(O)c2ccc(OC)c(OC)c2)c2ccccc21.Cl` (stereo not shown), 14.4%. In the case of `CCN(CC)c1nc2c(s1)C(=O)NCCC2` it was -13.2%; in that of `Cc1ccc(/C=C2\SC(=O)N(CCC(=O)N3CCN(C)CC3)C2=O)cc1`, -19%. `COc1ccc(-c2nc(CSCC(=O)NCCCN3CCCC3=O)c(C)o2)cc1`: the “hERG current change (%, negative = inhibition) at 10uM” value was found to be 6.73%. In the case of `COc1ccc(C(=O)CSc2nnc(COc3ccccc3)n2Cc2ccco2)cc1` it was -23.1%; in that of `C=CCn1c(Sc2ccccc2)nc2c1c(=O)[nH]c(=O)n2C`, -7.4%.

The record behind these values is publication PMC4336329 (PLoS ONE, 2015).
